Experimental data reported in ChEMBL document CHEMBL4888484, “Replenishing the malaria drug discovery pipeline: Screening and hit evaluation of the MMV Hit Generation Library 1 (HGL1) against asexual blood stage Plasmodium falciparum ,using a nano luciferase reporter read-out” (2022).
Out of some 150,000 compounds screened, about 540 (0.36%) showed an effect of 50% or more. The list shows a part of the results.

test system: Plasmodium falciparum; experiment: Primary screen in NF54 nanoGlo assay, in single point, at 2uM, 72h; a lower Z score goes with more inhibition; format: functional, Erythrocyte; conditions: timepoint 72 hour

| Compound | % Inhibition [%] | Z score |
| --- | --- | --- |
| O=S(=O)(Oc1cccc(-n2ccnc2)c1)c1cccnc1 | -4 | 0.6 |
| C#CCCC1(CCC(=O)N2CC[C@H](COc3ccccc3)C2)N=N1 | 3 | -0.32 |
| CC[C@H](C)NS(=O)(=O)c1cc(-c2cnc(C)o2)ccc1C | -7 | 1.26 |
| Cc1nc2ccc(NC(=O)c3ccc(CN4CCOCC4)cc3)cc2s1 | -14 | 1.16 |
| Cc1oc(-c2ccccc2F)nc1C(=O)N1CCCC1 | -14 | 1.43 |
| Cc1nc(C)c(C(=O)NCc2ccnc(-c3cnn(C)c3)c2)s1 | -9 | 1.37 |
| CCC(C)(C)NCc1ccc(OC)c(OC)c1 | -4 | 0.41 |
| CCOc1ccc2c(c1)N(C(=O)[C@H](Cc1ccccc1)N1C(=O)c3ccccc3C1=O)C(C)(C)C=C2C | -7 | 0.76 |
| C=CCNC(=O)N[C@H]1CCN2C(=O)c3ccccc3NC(=O)[C@@H]2C1 | -3 | 0.35 |
| Cn1cc(CCc2nc(-c3ccsc3)no2)cn1 | 1 | -0.18 |
| Cc1cc(-c2ncccc2NC(=O)NC2C(=O)NCCC2C)cs1 (configuration not stated) | -6 | 0.91 |
| O=S(=O)(CC1CCOCC1)N1CC2COCC(C1)O2 | 0 | 0.02 |
| Oc1cc(CN2CCN(c3cc(C4CC4)n[nH]3)CC2)nc(-c2ccccc2)n1 | -5 | 0.75 |
| Cc1cccc(NC(=O)Nc2nnc3cccc(Cl)n23)c1 | -15 | 1.65 |
| CCCCOc1ccc(-c2nn(-c3ccccc3)cc2C=C(C(=O)Nc2cccc(C(F)(F)F)c2)C(=O)Nc2cccc(C(F)(F)F)c2)cc1 | -2 | 0.27 |
| COCCn1ccnc1CN1C[C@@H]2NC(=O)CN(C)C(=O)c3ccc(C)c(c3)Oc3cccc(c3)CO[C@H]2C1 | -1 | 0.14 |
| CC(=O)c1nc2ccccc2n(CCOCCn2c(=O)c(C(C)=O)nc3ccccc32)c1=O | 1 | -0.15 |
| Cc1nc2c(=O)[nH]nc(-c3ccco3)c2s1 | -39 | 4.57 |
| O=C(NCc1cccnc1-n1ccnc1)c1ccc(Cl)cc1 | -9 | 1.16 |
| Cc1cccc(CNC(=O)c2c(C)noc2-c2ccc(C(C)(C)C)cc2)c1 | -16 | 2.14 |
| C=C(C)CS(=O)(=O)Nc1ccc(C2CC(=O)NC(=O)C2)cc1 | -13 | 1.53 |
| COc1ccc(-c2cc(C(=O)N3C[C@H]4C[C@@H](C3)C3CCCC(=O)N3C4)[nH]n2)cc1OC (some centres not stated) | -7 | 0.95 |

| Compound | % Inhibition [%] | Z score |
| --- | --- | --- |
| O=C1Cc2cc(/C=C/c3ccccc3)ccc2N1 | 2 | -0.36 |
| Cc1nc(C)c(-c2cccc(C(=O)N[C@H]3CS(=O)(=O)C[C@@H]3O)c2)s1 | -2 | 0.4 |
| CCCc1nc(CN(C)c2nnnn2-c2ccccc2)no1 | -17 | 3.25 |
| CCCc1nnsc1C(=O)N1C2CCC1COC2 | -11 | 2.18 |
| CC(C)(CC(N)=O)NC(=O)[C@@H]1CC=CCC1 | -8 | 0.83 |
| N[C@H]1C[C@@H](c2cc(N3CC(OCc4ccccc4F)C3)ncn2)C1 | 3 | -0.53 |
| O=C(Cn1c(-c2ccccc2)nn(-c2ccc(Cl)cc2)c1=O)NCCF | -4 | 0.54 |
| CCC(C)C(C)(O)CNC(=O)C(C)(C)S(=O)(=O)C1CC1 (configuration not stated) | -4 | 0.45 |
| Cc1noc(C)c1CCc1nnc(C2CCOCC2)o1 | -1 | 0.11 |
| Cc1cccc(C)c1Oc1ncccc1CNC(=O)c1cc(=O)[nH][nH]1 | -2 | 0.32 |
| O=C1Nc2cc(Cl)ccc2Oc2ccc(S(=O)(=O)N3CCc4ccccc4C3)cc21 | 2 | -0.25 |
| CCOc1cc(Cl)ccc1CNC(=O)Cc1cccnc1 | -13 | 1.71 |
| CCc1nnc(COc2ccc3c(c2)OC2(CCCCC2)CC3=O)o1 | -14 | 1.75 |
| O=C(CCCn1cccn1)N1CCCN(c2nc3ccccc3s2)CC1 | -11 | 1.12 |
| CC(C)CN(CC(C)C)CN1C(=O)C(=O)c2cc3c(cc21)OCCO3 | -5 | 0.91 |
| COC(=O)[C@@H](O)C(C)(C)NCc1ccon1 | -9 | 1.09 |
| CCC(C)CS(=O)(=O)NC(C)C1CC1 (configuration not stated) | -4 | 0.39 |
| COC(C)c1nsc(N2CCCNC(=O)C2C)n1 (configuration not stated) | 7 | -1.36 |
| CCn1ccnc1C(NC(=O)C1Cc2ccccc21)C1CCOCC1 (configuration not stated) | 2 | -0.3 |
| CCOCCn1nnc(Cc2ccccc2C)n1 | -2 | 0.29 |
| CCC(CC)n1nc(C(=O)Nc2c(C)nc(O)nc2O)cc1C | -10 | 1.81 |
| CCc1onc(C)c1NC(=O)N[C@H]1[C@@H]2COC[C@@H]21 | -10 | 0.85 |

| Compound | % Inhibition [%] | Z score |
| --- | --- | --- |
| CCc1noc2nc(C)nc(N3CCC[C@H](C(=O)NCc4ccccc4F)C3)c12 | 0 | -0.02 |
| O=S(=O)(Cc1csc(COc2ccc(Cl)cc2)n1)C1CCOCC1 | -15 | 2.85 |
| O=C1CC(C(=O)Nc2ccccc2C(=O)N2CCCCC2)C1 | -8 | 1.12 |
| Cc1ccc(CN(CC(=O)N[C@](C)(C#N)C2CC2)C(C)C)s1 | -5 | 0.6 |
| CC(C)N(C)CCNC(=O)COC1CCCCC1 | -3 | 0.51 |
| O=C(Cn1cccn1)NCCCc1ccc(Br)cc1F | 1 | -0.12 |
| COc1cc(=O)c(C(=O)N2CCc3ccccc3C2)nn1-c1ccc(C)cc1 | 0 | -0.01 |
| COCCc1noc(-c2cn(Cc3ccc(F)cc3Cl)nn2)n1 | -14 | 1.88 |
| O=C(c1cn2c(n1)COCC2)N1CCOC[C@@H]1CC1CC1 | 1 | -0.19 |
| CC(C)C[C@H](NC(=O)C(C)Cc1cnc[nH]1)C(=O)O (some centres not stated) | -9 | 1.15 |
| COCCN(Cc1c(C(C)C)nn(-c2ccccc2)c1Oc1cccc(F)c1)C(=O)c1cccc(F)c1 | -13 | 1.21 |
| Cc1c(Cl)cccc1C(=O)N1CCC[C@H](CN2CCOCC2)C1 | 2 | -0.39 |
| Cc1cc2nc(-c3cccc(NC(=O)c4cccc5ccccc45)c3C)oc2cc1C | -2 | 0.26 |
| O=C(Cc1ccsc1)N1CC[C@@]2(CCCN(CC3CCC3)C2=O)C1 | -4 | 0.84 |
| CC1CCC(O)(CNC(C)C2CCCO2)CC1 (configuration not stated) | -15 | 2.37 |
| Cc1cc(C(=O)NCC2(NC(=O)c3cc(C)oc3C)CCOCC2)c(C)o1 | 5 | -0.64 |
| O=C(NC1CCCC1)c1cn([C@H]2CCCN(Cc3ccc(OC(F)(F)F)cc3)C2)nn1 | -8 | 1.04 |
| O=C1c2ccccc2C(=O)C1(O)c1c[nH]c2ccccc12 | -11 | 1.7 |
| C=C(C)CNC(=O)NCC(=O)Nc1cc(Br)ccc1C | 6 | -0.74 |
| CCCCn1nc(C2CC2)nc1CCN1CCN(C)CC1 | -7 | 1.39 |
| COc1cc2ccccc2cc1C(=O)N1CC(=O)Nc2ccccc21 | 1 | -0.19 |
| O=C(CCn1cnc2cc(-c3noc(-c4cncc(Br)c4)n3)ccc21)N1CCCCC1 | -11 | 1.38 |

| Compound | % Inhibition [%] | Z score |
| --- | --- | --- |
| Cc1cc(-c2cccc(C(=O)N(C)C[C@H]3CCCCN3C)c2)cc(C)c1O | -16 | 2.49 |
| CCC(C)NC(=O)C1CC(C)N(Cc2nc(-c3ccc(Cl)cc3)no2)C2CCCCC12 (configuration not stated) | -9 | 1.74 |
| Cc1cc(C)c(C(=O)N2CCC(CC(=O)NCc3ccc4c(c3)OCO4)CC2)[nH]1 | -13 | 1.14 |
| COc1ccccc1C(=O)N1CCN(c2ccc(-c3nc(C)cs3)cn2)CC1 | -9 | 1.68 |
| Cc1nc2ccccc2n1CCNCc1ccco1 | 12 | -1.35 |
| Cc1cc(Nc2cnn(C3CCCC3)c2C)nc(C)n1 | -16 | 1.79 |
| O=C(NC1CCCCC1)[C@H](O)[C@@H](O)C(=O)NC1CCCCC1 | -8 | 1.07 |
| O=C(CN1CCc2[nH]c3ccccc3c(=O)c2C1)NCc1ccc2c(c1)OCO2 | -11 | 1.46 |
| CCNC(=O)N1CCN(c2nc3ccccc3c3nnc(-c4ccco4)n23)CC1 | -2 | 0.37 |
| CCN1CC2(CCN(c3cnccn3)CC2)C[C@@H](c2ccccc2)C1=O | -8 | 1.04 |
| CN(C)c1ccncc1CNCc1ccc(Cl)cc1Cl | 6 | -0.88 |
| O=C(O)C[C@H]1CCCN(c2nc(C3CC3)nc3[nH]ccc23)CC1 | -1 | 0.13 |
| C1CCC(CCc2nnc3n2CCOC3)CC1 | -6 | 1.02 |
| COC(=O)C[C@H](NC(=O)Nc1ccc(F)cc1)C(=O)OC | -9 | 1.2 |
| O=C(Nc1ccc(F)cc1)C1=C(Nc2ccccc2)c2ccccc2S1(=O)=O | 2 | -0.23 |
| CCc1csc(CCNC(=O)CCc2c(C)nc(O)nc2C)n1 | 2 | -0.51 |
| CC(C)c1csc(CN(CCCn2ccnc2)Cc2cccnc2)n1 | -1 | 0.08 |
| CCOc1ncccc1-c1c[nH]c(C)n1 | -11 | 2.06 |
| CCOc1ccccc1NC(=O)c1cc2nccc(-c3ccc(F)cc3)n2n1 | -1 | 0.09 |
| Cc1nnc(CC(=O)Nc2ccc(O[C@@H]3CCCC[C@H]3O)cc2)o1 | -11 | 1.68 |
